# Measured values as given in PubChem BioAssay AID485294 (National Center for Advancing Translational Sciences (NCATS), 2010).
# In all, about 370,000 compounds went through this assay and about 150 (0.041%) were called active. This list was built around the results that the source calls inconclusive (neither active nor inactive); the mix of calls is not that of the screen. Calls come from the whole dose curve; as a rule, active = well fitted inhibition curve with a large enough effect; inconclusive = small, poorly fitted or top-dose-only effect; inactive = flat fitted curve, though single readings scatter. No potency is given beside an inconclusive call; the fits are too rough.
# Molecular target: Beta-lactamase (Escherichia coli (strain K12)) (UniProt P00811)
# UniProt P00811, sequence (P00811 whole entry, looked up): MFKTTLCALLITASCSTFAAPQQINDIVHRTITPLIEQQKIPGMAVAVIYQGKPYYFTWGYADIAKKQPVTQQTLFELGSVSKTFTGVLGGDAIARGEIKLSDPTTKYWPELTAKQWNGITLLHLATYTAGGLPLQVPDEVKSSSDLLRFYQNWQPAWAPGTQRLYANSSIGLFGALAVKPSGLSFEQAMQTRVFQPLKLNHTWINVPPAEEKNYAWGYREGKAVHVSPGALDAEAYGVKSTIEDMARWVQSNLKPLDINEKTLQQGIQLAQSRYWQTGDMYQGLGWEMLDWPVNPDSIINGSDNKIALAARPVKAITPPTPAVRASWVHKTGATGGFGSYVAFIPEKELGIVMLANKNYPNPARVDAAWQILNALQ
# Assay: qHTS Inhibitors of AmpC Beta-Lactamase (assay with detergent); note: nearly all actives have a fitted effect of over 25% in size;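 for activity change, negative = inhibition: 0% = no-compound wells and -100% = no-enzyme wells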
# Settings: AmpC hydrolysis of nitrocefin, absorbance 480 nm, 0.01% Triton; activity change, negative = inhibition: at 114 µM (top of the series)
# Method in brief: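 20 mM phosphate pH 7.0 + 0.01% (detergent screen) or 0.0001% Triton X-100; 5.3 nM AmpC reagent; cpd preinc 15 min RT; nitrocefin (800 uM stock) to start; A480 q20 s × 4 min; Activity was normalised to no-enzyme and no-compound control wells.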
# Potency is the fitted concentration of half-maximal effect; tags give direction and shape of the fitted curve.
Compound,Potency,"activity change, negative = inhibition"
COc1ccc(/C=C/C(=O)c2ccc3c(c2)OCCO3)cc1[N+](=O)[O-],"inconclusive [inhibitor, single point]",
COc1ccc(NC(=O)c2cc3c(-c4ccc(OC)c(OC)c4)nn(C)c3s2)cc1OC,,inactive: 0.991%
CCOC(=O)c1c(NC(=O)c2nc(SCC)ncc2Cl)sc(C(C)=O)c1C,,inactive: -8.72%
O=C(c1cnccn1)N1CCN(c2ccccc2F)CC1,"inconclusive [inhibitor, partial curve, poor fit]",
COc1ccc(OCC(O)CNC(=O)c2cccs2)cc1 (centres undefined),,inactive: 6.09%
CCCOc1ccccc1C1CC(=O)Nc2cc3c(cc21)OCO3 (centres undefined),"inconclusive [inhibitor, partial curve]",
CCOC(=O)N1c2ccccc2Sc2ccccc21,,inactive: 1.47%
Cc1c(-c2nc(-c3ccc4c(c3)OCO4)no2)nnn1-c1ccc(Br)cc1F,,inactive: 3.22%
CC(C)CN(C(=O)c1cccc(S(=O)(=O)N2CCCCC2)c1)C1CCS(=O)(=O)C1 (centres undefined),"inconclusive [inhibitor, partial curve, poor fit]",
CC1(C)Cc2cccc(OCC(=O)NCc3ccccc3F)c2O1,"inconclusive [inhibitor, full curve, poor fit]",
O=C(NC(=S)Nc1ccccn1)c1cncc(Br)c1,"inconclusive [inhibitor, full curve, poor fit]",
COc1ccc(-c2cc(-c3n[nH]c(=S)n3-c3ccccc3OC)[nH]n2)cc1,"inconclusive [inhibitor, single point]",
CN=C(Nc1ccc2c(c1)OCO2)SC1CC(=O)N(c2ccccc2)C1=O (centres undefined),"inconclusive [inhibitor, partial curve, poor fit]",
CCOC(=O)c1[nH]c2ccc(F)cc2c1NC(=O)CN1CCc2cc(OC)c(OC)cc2C1,"inconclusive [inhibitor, partial curve, poor fit]",
Cc1ccccc1S(=O)(=O)c1c(C)cc(C)n(C(C)C)c1=O,,inactive: -2.33%
Cc1ccc(-c2nc3cnccn3c2Nc2ccc3c(c2)OCO3)o1,"inconclusive [inhibitor, partial curve, poor fit]",
Cc1nnc(NC(=O)CC(CN(C)S(=O)(=O)c2ccccc2)c2ccccc2)s1 (centres undefined),"inconclusive [inhibitor, full curve, poor fit]",
CCCC(=O)Nc1ccc2c(c1)nc(CCN1CCN(c3ccccn3)CC1)n2C,,inactive: -8.56%
COc1ccccc1C(=O)Nc1ccc(Oc2nnc(-c3ccc(C)cc3)c3ccccc23)cc1,"inconclusive [inhibitor, single point]",
COc1ccc2c(c1)c1c(c(=O)n(-c3ccc(F)c(Cl)c3)c(=O)n1CC(=O)N1CCCC1)n2C,,inactive: -2.84%
CCOc1ccc(C(=O)NCC(=O)NCCOc2ccc(C)cc2)cc1,"inconclusive [inhibitor, full curve]",
O=C(CSc1nnc(Cn2nnc3ccccc32)o1)N(Cc1ccc(F)cc1)c1ccccc1,"inconclusive [inhibitor, partial curve]",

Compound,Potency,"activity change, negative = inhibition"
Cc1ccc(OCC(=O)Nc2ccon2)c([N+](=O)[O-])c1,,inactive: 5.43%
Cc1ccc(C2=C(CC(=O)O)C(=O)CC2)cc1,"inconclusive [inhibitor, full curve, poor fit]",
O=C(CSCc1cc(=O)[nH][nH]1)Nc1ccc(F)cc1,"inconclusive [inhibitor, single point]",
COc1ccc(CNC2CCCCC2)cc1,"inconclusive [inhibitor, full curve, poor fit]",
Cc1csc(NC(=O)NCC2CCCC(CNC(=O)Nc3nc(C)cs3)C2)n1 (centres undefined),,inactive: 1.74%
O=C(CCl)NNc1cccc(Cl)n1,"inconclusive [inhibitor, single point]",
CN(C)c1ccc(/C=N/NC(=O)c2ccc(Cn3cc(Br)cn3)o2)cc1,"inconclusive [inhibitor, partial curve, poor fit]",
COc1ccc(NC(=O)c2ccc(OC)cc2)cc1,"inconclusive [inhibitor, full curve, poor fit]",
CCCCn1c(SCC(=O)NCc2ccco2)nnc1-c1ccoc1C,"inconclusive [inhibitor, full curve]",
Cc1nc2ccccc2nc1N1CCCC1,,inactive: -7.14%
CCOc1ccccc1NC(=O)c1nc[nH]c1C(=O)Nc1ccccc1OCC,"inconclusive [inhibitor, single point]",
Nc1c(C(=O)Nc2nc3ccccc3s2)sc2nc(-c3cccs3)ccc12,"inconclusive [inhibitor, single point]",
Cc1c(NC(=S)NC(=O)c2sc3ccccc3c2Cl)cccc1C(=O)O,,inactive: -1.21%
Cc1ccc(-n2c(=O)c3c4c(sc3n(CC(=O)c3ccc(Cl)cc3)c2=O)CCC4)cc1C,"inconclusive [inhibitor, single point]",
Cc1nc(C(F)(F)F)ccc1C(=O)NCC(O)c1ccccc1 (centres undefined),"inconclusive [inhibitor, partial curve, poor fit]",
Cc1nc2cc(NC(=O)c3ccc(N4C(=O)CCC4=O)cc3)ccc2s1,"inconclusive [inhibitor, full curve, poor fit]",
Cc1ccc2[nH]c(-c3cccc(N)c3)cc2c1,"inconclusive [inhibitor, partial curve]",
COc1ccc(/C=C/C(=O)c2ccc([N+](=O)[O-])o2)cc1,"inconclusive [inhibitor, full curve, poor fit]",
CN(C(=O)c1ccncc1)c1nnc(-c2cccnc2)s1,"inconclusive [inhibitor, partial curve, poor fit]",
Cc1ccc(OCC(=O)N(Cc2ccccc2)C(C)C)c([N+](=O)[O-])n1,,inactive: 0.374%
Cc1cccc(/C=N/NC(=O)NC23CC4CC(CC(C4)C2)C3)n1,,inactive: -1.01%
CCCCC[C@H](O)/C=C/[C@H]1C=CC(=O)[C@@H]1C/C=C\CCCC(=O)O,"inconclusive [inhibitor, full curve]",
